# Hit rate of the full screen: of about 370,000 compounds, about 150 (0.041%) were called active. The shares of active, inactive and inconclusive entries below differ from those in the screen. Calls follow the shape of the dose curve; as a rule, active = well fitted inhibition curve with a large enough effect; inconclusive = small, poorly fitted or top-dose-only effect; inactive = flat fitted curve, though single readings scatter. Potencies of inconclusive entries are left out as doubtful fits.
# Molecular target: Beta-lactamase (Escherichia coli (strain K12)) (UniProt P00811)
# UniProt P00811, sequence (P00811 whole entry, looked up): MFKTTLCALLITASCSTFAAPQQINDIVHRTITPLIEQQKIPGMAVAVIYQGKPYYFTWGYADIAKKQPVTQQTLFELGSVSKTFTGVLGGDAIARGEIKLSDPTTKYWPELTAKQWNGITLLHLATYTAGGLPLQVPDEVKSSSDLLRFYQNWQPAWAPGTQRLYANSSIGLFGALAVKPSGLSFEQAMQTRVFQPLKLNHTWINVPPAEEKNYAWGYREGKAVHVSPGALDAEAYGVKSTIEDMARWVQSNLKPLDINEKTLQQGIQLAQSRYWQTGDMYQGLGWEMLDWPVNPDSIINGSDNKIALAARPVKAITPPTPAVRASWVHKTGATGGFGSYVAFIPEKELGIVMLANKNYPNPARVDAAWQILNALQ
# Test: qHTS Inhibitors of AmpC Beta-Lactamase (assay with detergent); also: nearly all actives have a fitted effect of over 25% in size;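 as to activity change, negative = inhibition: 0% = no-compound wells and -100% = no-enzyme wells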
# Details: AmpC hydrolysis of nitrocefin, absorbance 480 nm, 0.01% Triton; activity change, negative = inhibition: at 114 µM (top of the series)
# Outline: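 20 mM phosphate pH 7.0 + 0.01% (detergent screen) or 0.0001% Triton X-100; 5.3 nM AmpC reagent; cpd preinc 15 min RT; nitrocefin (800 uM stock) to start; A480 q20 s × 4 min; Activity was normalised to no-enzyme and no-compound control wells.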
# Potency is read from the fitted curve at half-maximal effect; tags tell the direction and shape of the fitted curve.
SMILES,Potency,"activity change, negative = inhibition"
CCN(CC)C1=N/C(=C\c2ccco2)C(=O)N1c1ccccc1,"inconclusive [inhibitor, full curve, poor fit]",
CCOC(=O)c1sc(=S)n(-c2ccccc2Cl)c1SC,"inconclusive [inhibitor, single point]",
Cc1c(C(=O)N2CCCCC2)sc(NC(=O)C2CC2)c1C#N,"inconclusive [inhibitor, full curve, poor fit]",
CCOC(=O)c1[nH]c2ccc(OC)cc2c1NC(=O)CN1CCN(c2ccccn2)CC1,"inconclusive [inhibitor, full curve, poor fit]",
Cc1cc(C(=O)O)ccc1NCc1ccncc1,"inconclusive [inhibitor, partial curve, poor fit]",
Cc1ccc(CNC(=O)Cc2ccc(-n3c(=O)[nH]c4ccsc4c3=O)cc2)cc1,"inconclusive [inhibitor, full curve, poor fit]",
COC(=O)c1ccc(OC(=O)c2ccccc2F)cc1,"inconclusive [inhibitor, partial curve]",
O=[N+]([O-])c1ccc(C2CCCC/C2=N/OCc2ccc(F)cc2)c([N+](=O)[O-])c1 (stereo not drawn),"inconclusive [inhibitor, full curve, poor fit]",
CCCOc1cccc(C2C(C(=O)c3ccco3)=C(O)C(=O)N2c2nnc(C)s2)c1 (stereo not drawn),"inconclusive [inhibitor, full curve, poor fit]",
O=C(NCCCO)c1ccc(CSc2nc3ccccc3[nH]2)cc1,,inactive: 5.2%
c1cc(-c2noc(CCC3CCCC3)n2)ccn1,,inactive: -13.6%
Cc1ccc(C2c3[nH]c4ccccc4c3C[C@H]3C(=O)N(c4ccccc4C(=O)NCCN4CCOCC4)C(=O)N23)cc1 (stereo partly drawn),"inconclusive [inhibitor, partial curve]",
COc1cc(/C=N/NC(=O)c2cccnc2)ccc1OS(=O)(=O)c1ccc(C)cc1,"inconclusive [inhibitor, full curve]",
CN1CCN(NC(=O)/C=C/c2ccc(C(C)(C)C)cc2)CC1,"inconclusive [inhibitor, full curve, poor fit]",
CC(OC(=O)c1ccc([N+](=O)[O-])s1)C(=O)NC1CCCCC1C (stereo not drawn),,inactive: -10.3%
O=C1CC(c2ccc(F)cc2)SC(N(c2ccccc2)c2ccccc2)=N1 (stereo not drawn),"inconclusive [inhibitor, full curve, poor fit]",
Cc1cc(CN2CCCC(C(=O)Nc3ccc(-c4nc5ccccc5[nH]4)cc3)C2)n[nH]1 (stereo not drawn),,inactive: -6.83%
O=C(O)CN1C(=O)/C(=C2\SC(=S)N(C(Cc3ccccc3)C(=O)O)C2=O)c2ccccc21 (stereo not drawn),"inconclusive [inhibitor, partial curve]",
Cc1ccc(-c2nn(-c3ccc(F)cc3)cc2C(=O)N2CCN(C3CCS(=O)(=O)C3)CC2)cc1 (stereo not drawn),"inconclusive [inhibitor, full curve, poor fit]",
O=C(CSc1nccn1-c1ccccc1)NCc1ccc2c(c1)OCO2,"inconclusive [inhibitor, full curve, poor fit]",
Cc1c(O)ccc(C(=O)CN2CCN(c3ccccc3F)CC2)c1O,"inconclusive [inhibitor, full curve, poor fit]",
CC(C)c1ccccc1OCC(=O)Nc1cc(S(=O)(=O)N2CCOCC2)ccc1N1CCCC1,"inconclusive [inhibitor, full curve, poor fit]",

SMILES,Potency,"activity change, negative = inhibition"
Cc1cc(C(=O)NCC(=O)Nc2c(C)cccc2C)c2ccccc2n1,"inconclusive [inhibitor, single point]",
COC(=O)c1cn[nH]c1NC(=S)Nc1ccc(Cl)c(Cl)c1,"inconclusive [inhibitor, full curve]",
O=C(CC12CCC(CC1)C2)NCc1ccc2c(c1)OCO2,,inactive: 6.67%
O=S(=O)(N1CCCCC1)N1CCNCC1,"inconclusive [inhibitor, single point]",
CCC1(C(=O)OC)NC(c2ccco2)C2C(=O)N(c3ccc(C)cc3)C(=O)C21 (stereo not drawn),"inconclusive [inhibitor, full curve, poor fit]",
Clc1ccc(-c2nnn3c2nc(NC2CCCCC2)c2ccccc23)cc1,,inactive: 9.7%
CCOc1ccccc1CN1CCN(Cc2ccc3cc(F)ccc3n2)CC1CCO (stereo not drawn),"inconclusive [inhibitor, full curve, poor fit]",
CC1CCc2ccc(F)cc2N1S(=O)(=O)c1cccs1 (stereo not drawn),"inconclusive [inhibitor, full curve]",
CCOc1ccc(Nc2ncnc3c2c(-c2ccccc2)cn3-c2cccc(C)c2)cc1,,inactive: -6.5%
O=C(/C=C/Nc1cccc(C(F)(F)F)c1)c1ccc(Oc2ncccn2)cc1,,inactive: -4.52%
O=C(NCCCn1ccnc1)c1cc(S(=O)(=O)N2CCOCC2)ccc1F,"inconclusive [inhibitor, full curve, poor fit]",
CCn1ncc(CN2CCN(Cc3cccc(OC)c3)C(CCO)C2)c1C (stereo not drawn),,inactive: -3.07%
CCOc1ccc(CCNC(=O)c2nn(C)c3c2CS(=O)(=O)c2ccccc2-3)cc1OCC,,inactive: -0.399%
CC(C)NC(=O)c1ccccc1-c1nc(-c2ccccc2Cl)no1,"inconclusive [inhibitor, full curve, poor fit]",
COc1ccc2oc(=O)c(C(=O)NC3CCCCCC3)cc2c1,,inactive: -3.1%
CCn1c(OC)nc2c1c(=O)n(C)c(=O)n2C,,inactive: -5.51%
O=C(Nc1ccc(N2CCN(C(=O)c3ccccc3)CC2)c(Cl)c1)c1ncn[nH]1,"inconclusive [inhibitor, single point]",
CC(=O)c1ccc(N2CCN(C(=O)CCS(=O)(=O)c3ccc(C)cc3)CC2)cc1,,inactive: 3.05%
COC(=O)c1ccc(C)c(NC(=O)c2nn(C)c(=O)c3ccccc23)c1,"inconclusive [inhibitor, partial curve]",
O=C(COc1ccc2c(c1)C(=O)CC1(CCCCC1)O2)NCc1ccccn1,,inactive: -2.44%
CCc1nnc(NC(=O)CN2CCN(c3ccccc3OC)CC2)s1,,inactive: -3.38%

# Reference: PubChem BioAssay AID485294 (National Center for Advancing Translational Sciences (NCATS), 2010)
